Assay results from PubChem BioAssay AID1345082 (National Center for Advancing Translational Sciences (NCATS), 2018).
About 4,000 (4.3%) of roughly 94,000 compounds were called active. This list was built around the results that the source calls inconclusive (neither active nor inactive); the mix of calls is not that of the screen. Calls come from the whole dose curve; as a rule, active = well fitted inhibition curve with a large enough effect; inconclusive = small, poorly fitted or top-dose-only effect; inactive = no such curve, though single readings can be large or run the other way. A potency beside an inconclusive call is a rough fit, not a confirmed value.

assay: Cytotoxic Profiling in NIH 3T3 Cell Line of Diverse Libraries Using Quantitative High-Throughput Screening; details: NIH 3T3 viability, CellTiter-Glo ATP luminescence, 48-72 h; series mostly up to 96.7 µM; note: nearly all actives have a fitted effect of over 55% in size
Method in brief: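 Cytotoxicity is measured as loss of cellular ATP: NIH 3T3 cells (400/well) are exposed to compound for 48 or 72 hr at 37 °C, then CellTiter-Glo luminescence is imaged after 10 min at room temperature.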
Potency is the fitted concentration of half-maximal effect; tags give direction and shape of the fitted curve.

Compound	Potency
COC(=O)N1CCC(N2C(=O)c3c(c(C)nn3-c3ccccc3)C2C)CC1 (configuration not stated)	inconclusive: 50.1 µM [inhibitor, partial curve, poor fit]
COc1ccc(C(=O)N2CCCCC2c2nc(-c3cccnc3)n[nH]2)c(OC)c1 (configuration not stated)	inconclusive: 50.1 µM [inhibitor, partial curve, poor fit]
CN(C)c1ccc(CN2CC[C@H](c3nc4ccc(C(F)(F)F)cc4[nH]3)C2)cc1	active: 31.6 µM
COCC(=O)N1CCN(S(=O)(=O)c2ccccc2)C[C@@H]1C(=O)N[C@@H](Cc1ccc(OC)cc1)C(=O)OC	inactive
COc1ccc(OC)c(CN2CCC3(CCCNC3)C2)c1 (configuration not stated)	inconclusive: 50.1 µM [inhibitor, partial curve, poor fit]
COc1ccc(CN2CCNc3cc(-c4ccccc4)ncc3C2)cc1O	inconclusive: 31.6 µM [inhibitor, partial curve, poor fit]
O=C(c1ccccc1F)N1CCCC(C(=O)N2CCC(N3CCOCC3=O)CC2)C1 (configuration not stated)	inactive
CN1CCC(Oc2nccnc2N2CCc3ccccc3C2)C1 (configuration not stated)	inconclusive: 70.8 µM [inhibitor, single point]
COc1cccc(-c2ccc(C(=O)N3CCC(N[S+](=O)([O-])c4ccccc4)CC3)cc2)c1	inconclusive: 17.8 µM [inhibitor, full curve]
O=C1CO[C@H](c2ccc(NS(=O)(=O)c3ccccc3)cc2)[C@@H](CO)N1	inactive
O=C(COc1ccc(Cl)cc1)N1CCC(c2n[nH]c(=O)n2Cc2ccc(F)cc2)CC1	active: 3.16 µM
COc1ccc(CC(=O)Nc2ccc3c(c2)CN(CCOc2ccccc2)C(=O)C(C)O3)cc1 (configuration not stated)	inconclusive: 70.8 µM [inhibitor, single point]
O=C(NCc1ccc2c(c1)OCO2)c1nc2cccnc2n(Cc2ccccc2)c1=O	inconclusive: 44.7 µM [inhibitor, partial curve, poor fit]
Cc1nc2c(c(-c3ccc(Cl)cc3)n1)CCN(C(=O)Cc1ccc(F)cc1)CC2	inconclusive: 50.1 µM [inhibitor, partial curve, poor fit]
COCCN1CCNc2cc(Nc3cccc(OC)c3)ncc2C1	inconclusive: 44.7 µM [inhibitor, full curve]
COc1ccc(C(=O)N2CCC(CCn3c(C)cnc3-c3cccnc3)CC2)cc1	inconclusive: 39.8 µM [inhibitor, partial curve, poor fit]
CC1=C[C@@H](CNCc2ccncc2)[C@H](C(C)C)C[C@H]1Cc1nnc(-c2ccc([N+](=O)[O-])cc2)o1	inconclusive: 44.7 µM [inhibitor, partial curve, poor fit]
O=C(NCc1ccc(-c2cnc3c(Oc4ccccc4)nccn23)cc1)c1ccn[nH]1	inconclusive: 79.4 µM [inhibitor, partial curve, poor fit]
COc1ccc(F)cc1-c1cccc(C(=O)NCCNC(=O)c2ccc(Cl)nc2)c1	inconclusive: 50.1 µM [inhibitor, partial curve, poor fit]
Cc1nc(C)c(C(=O)N2CCC(c3noc(-c4ccccn4)n3)C2)s1 (configuration not stated)	inactive
Cc1cc(C)n(CCC(=O)N2CC(Oc3ccc(-c4nc(-c5ccccc5)no4)cc3)C2)n1	inconclusive: 44.7 µM [inhibitor, partial curve, poor fit]

Compound	Potency
COC(=O)NC1CCN(Cc2cccc(-c3cccs3)c2)CC1	inconclusive: 63.1 µM [inhibitor, partial curve, poor fit]
CCCNc1cc(N2CCC(CCC(=O)N3CCN(c4cccc(C)c4)CC3)CC2)ncn1	inconclusive: 39.8 µM [inhibitor, partial curve, poor fit]
COc1cccc(S(=O)(=O)NCC(=O)N2CCCCCNC(=O)CC2c2ccccc2)c1 (configuration not stated)	inactive
CNC(=O)c1cc(-c2ccc(C)cc2)cc2c1OCCN2Cc1cccnc1	inconclusive: 89.1 µM [inhibitor, partial curve, poor fit]
COc1cccc(CN2CCOC3CCN(CCCc4ccccc4)CC3C2=O)c1 (configuration not stated)	active: 79.4 µM
Cc1ccc(-c2cn3c(n2)CO[C@@H](CNCc2ccccc2Cl)C3)cc1	active: 89.1 µM
COc1ccccc1-n1c(=O)c(C(=O)NCCCc2ccccc2)nc2cccnc21	inactive
CC1(COc2ccccc2)COc2ccc(C(=O)NCc3cccnc3)cc2N1 (configuration not stated)	inconclusive: 100 µM [inhibitor, single point]
O=C(Cc1n[nH]c(=O)c2ccccc12)NC1CCCc2c1[nH]c1ccccc21 (configuration not stated)	inconclusive: 31.6 µM [inhibitor, full curve]
Cc1ccc(C2(C(=O)N[C@@H]3COCC[C@@H]3OCc3ccccc3)CC2)cc1	inconclusive: 50.1 µM [inhibitor, partial curve, poor fit]
CC(C)c1cc(C(=O)NCC2CCN(c3cnn(C)c(=O)c3)C2)n(C)n1 (configuration not stated)	inconclusive: 79.4 µM [inhibitor, single point]
CCCN1CCC2(CCN([S+](=O)([O-])c3ccc(C)cc3)CC2)Oc2ccccc21	inconclusive: 50.1 µM [inhibitor, partial curve, poor fit]
COc1ccccc1Nc1ccnc(N2CCC(C(=O)NCCc3ccc(Cl)cc3)CC2)n1	inconclusive: 31.6 µM [inhibitor, partial curve]
CC(C)CNc1ccc2c(n1)C(C)(C(=O)Nc1cccnc1)CN(Cc1ccccc1)C2 (configuration not stated)	active: 28.2 µM
COc1ccccc1C(=O)N1CCCC(c2nnc3n2CCN(C(=O)C2CC2)C3)C1 (configuration not stated)	inactive
Cc1cnc(C(=O)N2CCCCCCNC(=O)[C@@H]3C[C@@H](c4nc(-c5cccnc5)no4)C[C@@H]32)cn1	inactive
CCOc1ccc(CC(=O)N2CCC(Cc3nc(C(C)C)no3)CC2)cc1OCC	inconclusive: 44.7 µM [inhibitor, partial curve, poor fit]
COc1ccc(S(=O)(=O)N2CCC3(CCC(=O)N(CC4CC4)CC3)CC2)cc1	inconclusive: 44.7 µM [inhibitor, partial curve, poor fit]
CCCNC(=O)C(NC(=O)c1ccc(C)cc1)C1CCN(C(=O)c2ccc(F)cc2)CC1 (configuration not stated)	inconclusive: 44.7 µM [inhibitor, partial curve, poor fit]
COc1nc2nc(CCc3ccccc3)n(C)c2cc1-c1ccnn1C	inconclusive: 50.1 µM [inhibitor, partial curve, poor fit]
COc1cccc(CN2CCCC(C(=O)NCc3ccncc3)CCNC(=O)CC2)c1 (configuration not stated)	inactive

Compound	Potency
COc1ccc2[nH]c3c(c2c1)CCNC31CCN(C(=O)c2ccccc2F)CC1	inconclusive: 44.7 µM [inhibitor, partial curve, poor fit]
Cc1ccc(N2CC(c3noc(-c4ccc(F)cc4)n3)CC2=O)cc1 (configuration not stated)	inconclusive: 50.1 µM [inhibitor, partial curve, poor fit]
Cc1ccc(-n2nc3n(c2=O)CCN(C(=O)C2CCCC2)C3)cc1	inconclusive: 56.2 µM [inhibitor, partial curve, poor fit]
OC1(c2csc(CN3CCc4ccccc4C3)n2)CCN(CC2CCCCC2)CC1	inconclusive: 79.4 µM [inhibitor, partial curve, poor fit]
O=C(NCc1nc(-c2cnccn2)n[nH]1)[C@H]1CNC[C@H](C(=O)N2CCOCC2)C1	inconclusive: 39.8 µM [inhibitor, partial curve, poor fit]
O=C(NC1CCCCCC1)c1nc2sccn2c1-c1cccc(C(F)(F)F)c1	inconclusive: 50.1 µM [inhibitor, partial curve, poor fit]
COCCNc1ncnc2c1CN(C1CCNC1)C(=O)CN2C (configuration not stated)	inactive
COC(=O)[C@@H]1Cc2ncn(Cc3ccc(OC)cc3)c2CN1S(=O)(=O)c1ccc(F)cc1	active: 79.4 µM
Cc1oc2c(c1C(=O)NCc1ccc3c(c1)OCO3)CN(Cc1ccc(F)cc1)CC2	inconclusive: 44.7 µM [inhibitor, partial curve, poor fit]
Cc1cc(C)n(CCC(=O)N[C@@H]2CN(c3ccncn3)C[C@H]2CN(C)C)n1	inactive
CC(C)CCNC(=O)c1cnc2n1CCN(Cc1ccc3c(c1)CCO3)CC2	inconclusive: 79.4 µM [inhibitor, partial curve]
Cc1noc(C)c1CC(=O)N1CCCC(COc2ccccc2C(=O)NC2CC2)C1 (configuration not stated)	inconclusive: 70.8 µM [inhibitor, single point]
Cc1ccc(-c2nc(C(=O)NCc3ccccc3C)no2)cc1	inconclusive: 70.8 µM [inhibitor, single point]
CN1CC(C(=O)NCc2ccc(C(F)(F)F)cc2)NC1=O (configuration not stated)	inactive
COc1ccccc1Nc1ccnc(N2CCC(NC(C)=O)CC2)n1	inconclusive: 44.7 µM [inhibitor, partial curve, poor fit]
CC1(C)[C@H]2CC[C@@H](CNC(=O)c3ccc(Cl)nc3)[C@@H]1C2	active: 79.4 µM
CC1(C(=O)NCC2CCCO2)COCc2cnc(Nc3ccccc3)nc21 (configuration not stated)	inconclusive: 89.1 µM [inhibitor, partial curve]
Cc1cccc(CN(C(=O)c2ccco2)c2ccc(CC(=O)N3CCCC3)cc2)c1	inconclusive: 44.7 µM [inhibitor, partial curve, poor fit]
Cn1cnc(S(=O)(=O)N2CCC(c3noc(-c4cnccn4)n3)C2)c1 (configuration not stated)	inactive
CCc1ccc(C(=O)N2c3ccccc3CC2c2nc(C3CC3)no2)cc1 (configuration not stated)	inconclusive: 44.7 µM [inhibitor, partial curve, poor fit]
